# From publication PMC4336329 (PLoS ONE, 2015)
# In all, about 310,000 compounds went through this assay and about 14,000 (4.5%) showed an effect of 50% or more. Effects have a minus sign here. This is one part of the list.
# Target: human ether-à-go-go-related gene (hERG) potassium channel (human, UniProt Q12809)
# Assay: primary screen, population patch clamp on CHO cells stably expressing hERG
# 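Further: peak tail current of the secondary pulse compared with the same well before compound.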
# Sequence of human ether-à-go-go-related gene (hERG) potassium channel (Q12809 whole entry, looked up): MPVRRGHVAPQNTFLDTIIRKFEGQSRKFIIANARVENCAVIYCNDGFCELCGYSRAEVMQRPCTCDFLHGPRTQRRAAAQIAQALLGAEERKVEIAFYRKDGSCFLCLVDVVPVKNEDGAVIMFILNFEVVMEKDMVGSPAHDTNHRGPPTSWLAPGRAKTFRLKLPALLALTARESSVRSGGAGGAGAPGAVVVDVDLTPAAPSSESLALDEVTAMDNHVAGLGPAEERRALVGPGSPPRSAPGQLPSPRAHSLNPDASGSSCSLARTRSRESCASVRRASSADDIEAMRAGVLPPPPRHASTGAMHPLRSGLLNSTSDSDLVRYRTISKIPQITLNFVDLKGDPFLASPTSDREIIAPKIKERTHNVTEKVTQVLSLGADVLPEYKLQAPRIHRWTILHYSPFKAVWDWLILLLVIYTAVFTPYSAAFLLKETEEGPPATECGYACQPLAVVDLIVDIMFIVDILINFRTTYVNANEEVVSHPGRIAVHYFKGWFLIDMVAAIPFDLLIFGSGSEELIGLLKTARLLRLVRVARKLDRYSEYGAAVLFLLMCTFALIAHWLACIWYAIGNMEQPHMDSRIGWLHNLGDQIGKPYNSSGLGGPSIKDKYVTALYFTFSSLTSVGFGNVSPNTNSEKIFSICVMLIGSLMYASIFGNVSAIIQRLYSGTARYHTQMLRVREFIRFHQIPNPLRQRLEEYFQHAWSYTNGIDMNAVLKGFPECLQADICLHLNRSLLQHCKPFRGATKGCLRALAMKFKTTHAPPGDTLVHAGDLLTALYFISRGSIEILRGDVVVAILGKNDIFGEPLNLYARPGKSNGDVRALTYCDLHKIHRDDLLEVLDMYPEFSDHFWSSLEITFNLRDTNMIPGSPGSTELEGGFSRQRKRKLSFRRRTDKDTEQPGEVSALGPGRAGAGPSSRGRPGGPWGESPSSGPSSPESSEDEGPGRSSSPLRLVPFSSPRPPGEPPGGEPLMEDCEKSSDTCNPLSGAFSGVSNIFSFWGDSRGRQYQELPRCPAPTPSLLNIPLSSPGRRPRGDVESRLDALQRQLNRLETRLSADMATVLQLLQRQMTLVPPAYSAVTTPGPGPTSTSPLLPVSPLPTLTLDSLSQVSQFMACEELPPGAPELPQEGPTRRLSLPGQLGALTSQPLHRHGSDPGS
row,Structure (SMILES),"hERG current change (%, negative = inhibition) at 10uM"
1,O=C(CN1C(=O)c2ccc([N+](=O)[O-])cc2C1=O)NCc1ccc(C(=O)O)cc1,13.8%
2,c1ccc(-c2nnc(-c3ccccn3)nc2NC2CCCCC2)cc1,-11.6%
3,O=C(NC(=S)Nc1ccccc1N1CCN(C(=O)c2ccccc2)CC1)c1ccccc1F,2.77%
4,Cc1cc(C)c(NC(=O)OCCN2CCOCC2)c(C)c1,13.1%
5,Cc1ccc(-c2nc(CS(=O)(=O)CC(=O)N3CC(C)CC(C)C3)c(C)o2)cc1 (stereo not drawn),-13.6%
6,CN(C)C(=O)OCC1COc2ccccc2O1 (stereo not drawn),14.6%
7,Cc1cc(C)cc(C(=O)Nc2ccc3[nH]c(=O)[nH]c3c2)c1,14.6%
8,CC(Sc1ccc2c(c1)OCCO2)C(=O)Nc1ccc(N2CCOCC2)cc1 (stereo not drawn),-14.6%
9,COc1ccc(-c2nnn(CC(=O)N(CCO)C(C(=O)NC3CCCC3)c3ccncc3)n2)cc1 (stereo not drawn),10.9%
10,CC(NC(=O)CSc1n[nH]c(N)n1)c1ccccc1 (stereo not drawn),11.8%
11,Cc1cc(-c2ccccc2C(=O)NC2CCCCC2)on1,1.21%
12,CC(C)CCN1C(=O)c2ccc(C(=O)NCc3ccccn3)cc2C1=O,-34.2%
13,Cc1ccnc2nc(C(=O)OCC(=O)N3CCc4ccccc43)nn12,22.9%
14,CON(C)C(=O)Nc1ccc(Cl)cc1,23.8%
15,CCN1C(=O)c2ccc(C(=O)Nc3c(C)cc(C)cc3C)cc2C1=O,22.7%
16,CCn1c2ccc(C)cc2c2nc3cc(C(=O)O)ccc3nc21,-8.21%
17,CCCc1nn2c(=O)c(C(c3cccc(Cl)c3)c3c(O)nc4sc(CCC)nn4c3=O)c(O)nc2s1,24.4%
18,Cc1ccnc(N2CCC(C(=O)NCc3ccc4c(c3)OCO4)CC2)n1,-17.5%
19,O=C(NNc1ccc([N+](=O)[O-])cc1)C1C2CCCCC21 (stereo not drawn),6.84%
20,O=S1(=O)CCN(Cc2ccc(Cl)c(Cl)c2)CC1,6.46%
21,O=S(=O)(NCc1c(Cl)cccc1Oc1ccccc1)c1ccccc1,11.9%
22,CCN(CC)Cc1c(O)ccc2c1O/C(=C\C=C\c1ccccc1)C2=O,-18.8%
23,COc1ccc(-c2[nH]ncc2CN2CCN(C(=O)c3ccco3)CC2)cc1F,-6.81%

row,Structure (SMILES),"hERG current change (%, negative = inhibition) at 10uM"
1,CCOC(=O)c1ccc(P(=O)(c2ccccc2)c2ccccc2)cc1,-18.2%
2,O=C(COC(=O)c1cc([N+](=O)[O-])ccc1NCCO)NCc1cccs1,-19.9%
3,Cc1cccc(CSc2ccc(-c3ccco3)nn2)c1,-17.3%
4,COc1cccc(NC(=S)NCc2cccnc2)c1,8.76%
5,CC(=O)N(Cc1ccco1)C1(C(=O)NC2CCCC2)CCCCC1,21.7%
6,O=C1CC(N2CCN(c3ccc(S(=O)(=O)N4CCOCC4)cc3)CC2)C(=O)N1Cc1ccccc1 (stereo not drawn),-11.4%
7,C/C(=N\NC(=O)c1cc(C2CC2)nc2ccccc12)c1ccc(C)s1,18.3%
8,COc1cccc(CNc2ncn[nH]2)c1OCc1ccc(F)cc1,8.3%
9,COc1ccc(C2(CNC(=O)c3cc([N+](=O)[O-])cc([N+](=O)[O-])c3)CCCC2)cc1OC,-6.52%
10,O=C(N/C(=C/c1ccc(Br)cc1)C(=O)N1CCOCC1)c1ccc(Br)o1,-70.2%
11,CCc1cccc(OCC(=O)Nc2c[nH]c(=O)[nH]c2=O)c1,23%
12,CCCn1nnnc1NC(=O)COc1ccc(Br)cc1,5.06%
13,Cc1ccccc1S(=O)(=O)Cc1ccc(C(=O)NCCCN2CCN(C)CC2)o1,-1.6%
14,COC(=O)c1cn(-c2ccccc2)nc1-c1ccncc1,-2.62%
15,Cc1cccc(NC(=O)CNC(=O)c2ccc3nc[nH]c3c2)c1C,4.12%
16,CCOC(=O)C1CCN(C(=O)COc2ccc(Cl)cc2C)CC1,-46.1%
17,CCOc1ccc(-c2nnc(SCC(=O)N3CCOCC3)o2)cc1,2.8%
18,O=C1CCc2cc(S(=O)(=O)Nc3ccccc3)cc3c2N1CC3,4.53%
19,O=C1NC(=O)N(Cc2ccc(F)cc2)C(=O)/C1=C\c1ccc([N+](=O)[O-])s1,18.9%
20,CN/C(=C\[N+](=O)[O-])NCCSCc1csc(CN(C)C)n1,15.7%
21,Cc1cc(C)nc(NS(=O)(=O)c2ccc(N)cc2)n1,12%
22,COc1ccc(/C=C(/C#N)S(=O)(=O)c2ccc(C)cc2)cc1,6.64%
23,COc1ccc(-n2c(C)cc(C(=O)Cn3c(NCCO)nc4ccccc43)c2C)cc1,-21.7%

row,Structure (SMILES),"hERG current change (%, negative = inhibition) at 10uM"
1,O=C(CN(Cc1cccs1)C(=O)CNC(=O)c1ccco1)NC1CCCCC1,-10.1%
2,O=C(NCc1cccnc1)c1noc2c1CCCCC2,9.21%
3,CC1CCC(C(C)C)C(OC(=O)CSc2n[nH]c(=O)[nH]c2=O)C1 (stereo not drawn),-19.9%
4,COC(=O)c1ccc(/C=N/NC(=S)NC(C)C)cc1,3.93%
5,COc1ccc(S(=O)(=O)N2CCC(C(=O)NCc3ccco3)CC2)cc1C,8.26%
6,O=C(O)CSc1nnc(-c2ccco2)o1,8.89%
7,O=C(NCc1ccccc1)C1=C[C@@H](c2ccc3c(c2)OCO3)C[C@@H](OCCCCO)O1,-42.2%
8,Cc1nc(Nc2ccccc2)sc1C,-6.02%
9,Cc1ccc(C(=O)Nc2ncc3c(n2)CC(c2ccco2)CC3=O)cc1 (stereo not drawn),14.9%
10,COc1ccc(-c2cn(Cc3ccc(C)cc3)nn2)cc1,7.67%
11,COc1ccc(C(=O)OCC(=O)Nc2ccc(N3CCOCC3)cc2)cc1OC,1.59%
12,O=C(NCC1CCCO1)c1ccc(Cl)c(F)c1F (stereo not drawn),14.6%
13,O=C(CCC(=O)c1cccs1)OCC(=O)c1ccc(Cl)s1,6.99%
14,CC(C)NC(=S)N/N=C/C1=CCC2CC1C2(C)C (stereo not drawn),3.52%
15,NC(=O)Cn1c(=O)n(CCC(=O)NCCSCc2ccccc2)c(=O)c2ccccc21,13.6%
16,O=C(COC(=O)Cc1ccccc1)Nc1ncc(Cl)cc1Cl,7.72%
17,CCCC[n+]1c(-c2ccc(Cl)cc2Cl)csc1Nc1ccccc1.[Cl-],-6.7%
18,CCOC(=O)C(C)c1nn(C)c(=O)c2ccccc12 (stereo not drawn),9.24%
19,Cc1c(C(=O)C(=O)NCCc2ccc(S(N)(=O)=O)cc2)c2ccccc2n1C,-13.4%
20,COc1ccc(-c2csc(CCn3nc(C)cc3C)n2)cc1,4.1%
21,CCCCc1ccc(NC(=O)CSc2nc3ncccc3[nH]2)cc1,8.18%
22,Cc1cc(-c2n[nH]c(=S)n2Cc2ccco2)nn1C,12.3%
23,O=C1CCSc2ccc(Cl)cc2N1Cc1cccc(Cl)c1,-11.7%

row,Structure (SMILES),"hERG current change (%, negative = inhibition) at 10uM"
1,CC(C)NC(=O)COCc1cc(-c2ccc3c(c2)OCO3)on1,5.76%
2,COc1cc(S(=O)(=O)N2CCC(c3nc4ccccc4s3)CC2)ccc1S(=O)(=O)NC1CCCC1,-0.551%
3,CN1C(=O)c2c(sc3c2CCCC3)NC1c1ccccc1O (stereo not drawn),16.4%
4,O=C(OC1CCc2ccccc2C1=O)c1ccccc1O (stereo not drawn),0.0313%
5,CSCC[C@H](NC(=O)[C@H](Cc1ccccc1)n1c(=O)[nH]c2ccccc2c1=O)C(=O)NCC1CCC(C(=O)O)CC1 (stereo partly drawn),19.1%
6,O=C(CSc1nnc(NC2CC2)s1)Nc1ccc(N2CCOCC2)cc1,-23.2%
7,Cc1ncc2c(c1OC(=O)c1ccccc1)COC(C)(C)OC2,-6.46%
8,O=C(O)[C@H]1CCCN1S(=O)(=O)c1cccc2cccnc12,0.132%
9,COc1ccc(-c2cc(-c3cccs3)c(C#N)c(SCC(=O)NCc3ccccc3OC)n2)cc1,-5.25%
10,Cc1cccc(NC(=O)NC(=S)NC(=O)c2ccccc2)c1,3.41%
11,CCN(Cc1cccs1)C(=O)CN1C(=O)NC2(CCCc3ccccc32)C1=O (stereo not drawn),-2.16%
12,O=S(=O)(c1ccc(Br)s1)N1CCN(c2ccc(F)cc2)CC1,25.1%
13,COc1ccc(NC(=O)CCn2c(=S)[nH]c3ccccc3c2=O)cc1,22.3%
14,O=C(O)c1cc(S(=O)(=O)O)cc(Nc2c3ccccc3nc3ccccc23)c1O,14.6%
15,NC(=O)c1nn2c(C(F)(F)F)cc(-c3ccccc3)nc2c1Br,-0.764%
16,COc1cccc(NS(=O)(=O)c2ccc3c(c2)C2C=CCC2C(c2ccc(C(=O)O)cc2)N3)c1 (stereo not drawn),4.09%
17,Cc1ccc(CCNC(=O)c2nnn(-c3cc(C)cc(C)c3)c2N)cc1,10.5%
18,CC(Sc1nnc2c(n1)C1(C)CCC2C1(C)C)C(=O)Nc1ccccc1 (stereo not drawn),-25.5%
19,COc1ccc2sc3ccccc3c(=O)c2c1OC,17.5%
20,CCOC(=O)C1=C(N)Oc2cc(O)ccc2C1c1cccnc1 (stereo not drawn),-11.4%
21,CC(=O)Nc1ccc(C(=O)Nc2nc(-c3cccnc3)cs2)cc1,16.7%
